This note sets out measurements from the RNAGym collection of RNA variant scans (doi:10.1073/pnas.2313332121).

B1: TPR 5TU (parent)
chain: GGAUCUUCUCGAUCUAACAAAAAAGACAAAUCUGCCACAAAGCUUGAGAGCAUCUUCGGAUGCAGAGGCGGCAGCCUUCGGUGGCGCGAUAGCGCCAACGUUCUCAACUAUGACACGCAAAACGCGUGCUCCGUUGAAUGGAGUUUAUCAUG

Variants at the background level are over-represented here. Where only a bound is given, the exact number is not on record here.

The data set covers variants of B1. Nature of the data set: polymerase ribozyme fitness, log enrichment relative to wild type (log ratio); higher = more active; in vitro selection for triplet polymerase activity. The method in brief:
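In triplicate, a single round of in vitro selection was run on each mutant library, PCR-built and transcribed, covering one subunit of a heterodimeric triplet polymerase ribozyme. Frozen incubation at −7 °C followed annealing with a biotinylated primer, partner subunit and triplets, and extended constructs were then gel-excised, streptavidin-captured and taken through RT-PCR. Fitness is the logarithm of genotype enrichment over wild-type enrichment, from inverse-variance-weighted replicate averages of Illumina-sequenced inputs and outputs. […] only genotypes with ≥10 input reads and ≥1 read per output were kept.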
U53A G59A G71A C103A: the “polymerase ribozyme fitness (log ratio)” value is at most -4.2.
The result for U53C U77C C87U C103U C114U reads at most -4.2.
The result for A52U G68A U82G G133U A137C A142C reads at most -4.2.
The result for A52U G71A C125A U148A reads at most -4.2; that for U53A G92C U102C, -3.58; that for A52U U77G G84C G128A G143A, at most -4.2.
Take A52G G152C: the “polymerase ribozyme fitness (log ratio)” value is -3.59.
The result for C54A U55A U77G A121C A137U reads at most -4.2; that for C54A C85U C105U A142C, -2.12.
The result for A52U U56G G67C C103G U139C reads at most -4.2.
The result for C54A C87G A98G reads at most -4.2; that for A52U C87G C99U, at most -4.2; that for U53C U55A C99U U111C, at most -4.2.
For the variant C54A A91U U109C G140U U146C, the “polymerase ribozyme fitness (log ratio)” value is at most -4.2.
As to C54G C85U A91C C99A C105A A120U, the “polymerase ribozyme fitness (log ratio)” value was at most -4.2.
In the case of C54G C85A G92C G133U U146G it was at most -4.2; in that of U53A C57U A91C C125A, at most -4.2.
In the case of C54A C85A C132U U148C it was at most -4.2; in that of U53G C54G C87U A106C G126A, at most -4.2.
Consider U53G C76A U134A, for which the “polymerase ribozyme fitness (log ratio)” value was at most -4.2.
For U53A C96U G117U G152U, the “polymerase ribozyme fitness (log ratio)” value was at most -4.2.
In the case of U53A C87G it was at most -4.2.
In the case of U53A A66C C132A it was at most -4.2; in that of U53A G80C, at most -4.2.
In the case of U53A U61A C85U A97U C108U it was at most -4.2; in that of C54G C72U G86C A91G, at most -4.2; in that of C54A C57G A91G G92A U144C, at most -4.2.
For the variant C54A C57G C87U A150G, the “polymerase ribozyme fitness (log ratio)” value was -3.99.
As to C54G C76A C93G C123U, the “polymerase ribozyme fitness (log ratio)” value is at most -4.2.
As for C54A C79G G92U G152A, the “polymerase ribozyme fitness (log ratio)” value is at most -4.2.
In the case of C54A A91G A120G it was -3.57.
In the case of U53A G94C C105A C118U it was at most -4.2; in that of C54A C75U C93U, -2.29.
The result for A52U G59A G80C U109A reads at most -4.2; that for U53G G59A G65C G86U, at most -4.2; that for C54A G84C A89C C93G U145A, at most -4.2.
Turning to A52G U77G A91C, the “polymerase ribozyme fitness (log ratio)” value is at most -4.2.
The result for U53A G81A C99U reads -2.36.
The result for C54G A60U C85G A107U U127A reads at most -4.2; that for C54A C75G C87G U146C, at most -4.2.
Regarding C54A G67U G80U A98U C103A U139G G140U, the “polymerase ribozyme fitness (log ratio)” value was at most -4.2.
Turning to U53A U55G A66G C85G U111A A142C U146A, the “polymerase ribozyme fitness (log ratio)” value was at most -4.2.
The result for A52G U53G G67U C93G A110G reads at most -4.2; that for U53A G128C A137C U148G C149G, at most -4.2; that for U53G A64U C85A C96G, at most -4.2.
The result for C54A U56A G68U A107U U134G U146C reads at most -4.2; that for U53A U77A G84A C108U, at most -4.2.
In the case of U53A C57G G74C C87A C93A it was at most -4.2; in that of A52G G141U, 1.
As for U53A U61G C95G C99U A107U C116U C149U, the “polymerase ribozyme fitness (log ratio)” value was at most -4.2.
The result for U53G G58C C95G A122U reads at most -4.2; that for U53A G67A G68U G80C A142G C149A, at most -4.2.
In the case of C54G C79A A91G it was at most -4.2.
The result for U53A C85A U101G A119G U127A U151A reads at most -4.2; that for U53A U90G G92C, at most -4.2; that for U53G A60U C69U C131G, at most -4.2.
As to U53A G84U, the “polymerase ribozyme fitness (log ratio)” value was -1.26.
Regarding U53C C63G C87A C95U A106U, the “polymerase ribozyme fitness (log ratio)” value is at most -4.2.
A52U G81A U104A G124U U134A: the “polymerase ribozyme fitness (log ratio)” value is at most -4.2.
In the case of U53A C63G A120G G143C it was at most -4.2.
In the case of U53A G88U C93U it was at most -4.2; in that of A52U C79A A110U C116U A120U C131G, at most -4.2; in that of A52U U78G G92U C95A A138C, at most -4.2.
The result for U53C A97U C114G U145A reads -3.74; that for U53G A137G, -2.32; that for C54G C75G C85G C103G, at most -4.2.
For the variant U53G C85G C93G C125U G141A A142G, the “polymerase ribozyme fitness (log ratio)” value is at most -4.2.
In the case of C54A G70C G80C C85U C99G C132A it was at most -4.2; in that of U53G U56G A64U G67C C149A, at most -4.2; in that of U53A C57A A73U C76A C103G U148C, at most -4.2.
In the case of U53A G67C C76G G84A C114U it was -4.1; in that of C54A G59U C93A G94A G117U G141U, at most -4.2.
For A52U G74C U130A U139C, the “polymerase ribozyme fitness (log ratio)” value is at most -4.2.
In the case of U53A G84U A113U A115C U146A G152A, the “polymerase ribozyme fitness (log ratio)” value was at most -4.2.
Consider U53A C54G C93U U101C G126A A150C, for which the “polymerase ribozyme fitness (log ratio)” value is at most -4.2.
Regarding U53A A64U C85A G124A, the “polymerase ribozyme fitness (log ratio)” value was at most -4.2.
In the case of A52U A89U C96A it was -2.98; in that of U53A U102G A120G G133C C149A, at most -4.2; in that of U53C C87A, at most -4.2.
The result for U53C G58C C93U C96G reads at most -4.2; that for U53G U77G C96G C118A U134C G141U, at most -4.2; that for U53A C69U C79G C93U C123G A137C, at most -4.2.
The result for U53G C79U reads at most -4.2.
Regarding A52U C85G G92A C118A A120U, the “polymerase ribozyme fitness (log ratio)” value was at most -4.2.
